Laboratory results from the supplement of paper PMC12217912.
Some of the results follow. Sequences were assembled here from the parent chain. Inactive controls read about 0.05.

B1: TEV protease; numbered along this chain (parent)
chain: MGESLFKGPRDYNPISSSICHLTNESDGHTTSLYGIGFGPFIITNKHLFRRNNGTLVVQSLHGVFKVKDTTTLQQHLVDGRDMIIIRMPKDFPPFPQKLKFREPQREERICLVTTNFQTKSMSSMVSDTSCTFPSGDGIFWKHWIQTKDGQCGSPLVSTRDGFIVGIHSASNFTNTNNYFTSVPKNFMELLTNQEAQQWVSGWRLNADSVLWGGHKVFMVKPEEPFQPVKEATQL

Variants of: B1
Assay: raw area under fraction-flipped curve 0-4 h after induction (AUC4h, not background-subtracted), DNA-recorder readout of cleavage of the substrate (dimensionless); higher = more cleavage of the substrate by the protease variant
Details: temperature: 34 °C; time window: 0-4 h after rhamnose induction
Experimental: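 In vivo DNA recorder in E. coli TOP10(DE3) ΔrhaA at 34 °C. Each TEVp single-site mutant (parent TEVp 0) is paired with a single-site variant of the 7-mer TEVs (canonical ENLYFQ|S). The substrate sits between flexible linkers in a Bxb1-sfGFP-TEVs-SsrA fusion, so cleavage stabilises Bxb1 and speeds flipping of a recombination array, read by NGS. The value is the raw area under the fraction-flipped curve over 0-4 h after rhamnose induction (AUC4h), with ≥20 reads per time point. It is not background-subtracted; inactive controls average about 0.047.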
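Note: Bxb1 expression induced with 0.2% (w/v) L-rhamnose at OD600 near 0.5, cultures sampled hourly, flipped fraction per protease–substrate barcode pair counted by paired-end Illumina sequencing.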

| Variant | area with substrate ENLYAQS | area with substrate ENLYCQS | area with substrate ENLYDQS | area with substrate ENLYEQS | area with substrate ENLYGQS | area with substrate ENLYHQS | area with substrate ENLYIQS | area with substrate ENLYKQS | area with substrate ENLYNQS | area with substrate ENLYQQS | area with substrate ENLYRQS | area with substrate ENLYSQS | area with substrate ENLYVQS | area with substrate ENLYWQS | area with substrate ENLYYQS | area with substrate ENLYMQS | area with substrate ENLYPQS | area with substrate ENLYTQS | area with substrate ENLYLQS |
| --- | --- | --- | --- | --- | --- | --- | --- | --- | --- | --- | --- | --- | --- | --- | --- | --- | --- | --- | --- |
| I43R | 0.0379 | 0.0441 | 0.0378 | 0.0489 | 0.0445 | 0.0419 | 0.0693 | 0.068 | 0.053 | 0.052 | 0.0364 | 0.0472 | 0.038 | 0.0528 | 0.0423 | – | – | – | – |
| G80C | 0.0645 | – | 0.0589 | 0.0659 | 0.0638 | 0.0974 | 0.113 | 0.0539 | 0.0704 | 0.0406 | 0.0557 | 0.0746 | – | 0.0874 | 0.0559 | 0.08 | 0.0668 | 0.0728 | – |
| T44A | 0.0684 | 0.0742 | 0.0572 | 0.0581 | 0.0641 | 0.0649 | 0.0809 | 0.0302 | 0.0599 | 0.0658 | 0.055 | 0.0636 | 0.0893 | 0.0562 | 0.0653 | 0.0599 | 0.0676 | 0.0783 | 0.0569 |
| P40N | 0.0783 | 0.101 | – | 0.0627 | 0.0702 | 0.0629 | 0.154 | 0.0143 | 0.0649 | – | 0.077 | 0.088 | 0.151 | 0.0822 | – | 0.0843 | – | 0.0805 | – |
| P40S | 0.0751 | – | 0.0614 | 0.0689 | 0.0611 | 0.0449 | 0.112 | 0.0553 | 0.0646 | 0.0776 | 0.0636 | 0.065 | 0.101 | 0.0794 | – | 0.11 | 0.066 | 0.0792 | 0.0923 |
| K120P | 0.068 | – | 0.02 | – | – | – | 0.112 | – | 0.0718 | – | 0.0592 | – | 0.113 | 0.0882 | – | 0.0686 | 0.0699 | – | – |
| K120G | 0.0589 | 0.0919 | – | 0.0705 | 0.105 | 0.0643 | – | – | – | 0.0568 | 0.032 | – | – | 0.0645 | 0.0063 | – | 0.0774 | – | – |
| N52W | 0.0605 | 0.0628 | 0.0604 | 0.0696 | 0.0588 | 0.0703 | 0.0773 | 0.0574 | 0.0703 | 0.055 | 0.0648 | 0.0691 | 0.0715 | 0.061 | 0.0607 | 0.0643 | 0.059 | 0.0593 | – |
| M88G | 0.0404 | – | 0.0605 | 0.0459 | 0.0253 | – | – | – | 0.0545 | 0.0299 | 0.0642 | 0.0551 | 0.0754 | 0.0644 | – | 0.0469 | 0.0454 | 0.0538 | – |
| M88Y | 0.0487 | – | 0.0819 | – | – | 0.0651 | 0.0614 | – | 0.0472 | 0.033 | – | – | – | – | – | – | 0.0912 | – | – |
| L56T | 0.0652 | 0.0475 | 0.056 | – | 0.05 | 0.0573 | 0.0747 | 0.0542 | 0.0592 | – | 0.0713 | – | – | 0.0564 | 0.0462 | 0.064 | 0.0573 | 0.0574 | – |
| L56S | 0.069 | – | 0.0455 | 0.0497 | 0.0434 | 0.0416 | 0.112 | 0.0357 | 0.054 | 0.0408 | – | 0.0519 | 0.0504 | 0.0372 | 0.0397 | 0.0448 | 0.0338 | 0.0563 | – |
| L56I | 0.0655 | – | 0.054 | 0.0643 | 0.0682 | – | 0.118 | – | 0.0677 | – | 0.0501 | – | 0.125 | 0.0861 | 0.0595 | – | 0.0649 | 0.0833 | – |
| L56W | 0.0509 | – | 0.0565 | 0.0513 | 0.0631 | 0.0577 | 0.0628 | 0.0517 | 0.0828 | 0.0693 | 0.0622 | 0.0653 | 0.0652 | 0.05 | 0.0541 | 0.0548 | 0.0544 | – | – |
| L56C | 0.086 | – | – | 0.0568 | – | – | 0.0941 | 0.0542 | 0.0332 | – | – | – | 0.02 | 0.0747 | 0.0319 | – | 0.062 | 0.0662 | – |
| P96F | 0.0682 | – | 0.0584 | 0.0754 | 0.0465 | 0.0717 | – | – | 0.0881 | – | 0.0675 | 0.0712 | 0.119 | 0.0761 | – | 0.0918 | 0.0688 | – | – |
| P96L | 0.0725 | – | 0.0494 | – | – | 0.0691 | – | – | 0.066 | – | – | – | – | 0.0695 | 0.0716 | – | 0.0632 | – | – |
| P96V | 0.0537 | 0.0857 | 0.0651 | 0.0751 | 0.0564 | 0.0695 | 0.118 | 0.0733 | 0.0645 | – | – | 0.07 | 0.114 | 0.079 | – | 0.0737 | 0.0788 | – | 0.0742 |
| P96S | 0.0498 | – | 0.0651 | 0.0792 | 0.0576 | 0.0639 | – | 0.0379 | – | 0.0611 | 0.0712 | – | 0.125 | – | 0.0506 | 0.0627 | 0.0819 | – | 0.0874 |
| Q105F | 0.0757 | – | – | 0.077 | 0.0672 | 0.0618 | 0.0975 | 0.071 | 0.0725 | – | – | – | – | 0.0673 | 0.0576 | 0.0826 | – | 0.092 | – |
| Q105W | 0.066 | 0.0804 | 0.0568 | 0.0693 | 0.0637 | 0.0667 | 0.103 | 0.098 | 0.0669 | 0.0598 | 0.0692 | 0.0548 | 0.121 | – | 0.0628 | 0.0773 | 0.065 | 0.0773 | – |
| E103G | 0.0795 | – | 0.064 | 0.0728 | 0.0677 | 0.0589 | 0.118 | 0.0565 | 0.0696 | 0.0544 | 0.0384 | 0.0661 | 0.0716 | 0.0689 | 0.0665 | 0.0772 | 0.0683 | 0.075 | 0.0798 |
| T72H | 0.0666 | 0.0884 | 0.0583 | 0.0589 | 0.0526 | 0.0608 | – | 0.0471 | 0.0656 | 0.0791 | 0.0675 | 0.0766 | 0.148 | 0.0816 | 0.0455 | 0.0895 | 0.0687 | – | – |
| T72V | 0.0677 | – | 0.0447 | 0.069 | – | 0.0677 | – | 0.0446 | 0.0733 | 0.0655 | 0.0407 | 0.0738 | 0.128 | 0.105 | – | 0.0735 | 0.0809 | 0.0689 | 0.109 |
| T72A | 0.0861 | 0.0675 | 0.0659 | – | – | 0.0592 | 0.108 | 0.0558 | – | – | – | 0.0727 | 0.0837 | 0.0764 | – | 0.0668 | 0.0565 | 0.0976 | – |
